Legend:
N-cNOS (Type 1) [1] = molecular target: T1, N-cNOS (Type 1) (Rattus norvegicus, UniProt P29476)
N-cNOS (Type 1) [2] = molecular target: T1, N-cNOS (Type 1); test: biochemical

Structure (SMILES) | selectivity for N-cNOS compared to E-cNOS, compared with the existing NOS inhibitors (L-EIN) (N-cNOS (Type 1) [1]; conclusion from Tables 49, 50 and 51) | Ratio of IC50 values E-cNOS/N-cNOS (N-cNOS (Type 1) [1]; index of selectivity) | Ratio of IC50 values iNOS/N-cNOS (N-cNOS (Type 1) [1]; index of selectivity) | IC50 (N-cNOS (Type 1) [2]) [nM]
CCN=C(N)Nc1cccc(CN)c1Cl.Cl.Cl [Example 538, N-(2-chloro-3-(N′-ethylguanidino)phenylmethyl)amine dihydrochloride] | more selective inhibitory effect on N-cNOS than L-EIN | 104.2 | 12.5 | 24.4
CCN=C(N)Nc1cccc(CCN)c1.Cl.Cl [Example 543, N-(3-(N′-ethylguanidino)phenylethyl)amine dihydrochloride] | – | 32.8 | – | 95
